The other results are listed elsewhere or left out.

The experiment has as its target T1, OsWOX13 (Oryza sativa, UniProt Q5QMM3 1-267).
T1 sequence: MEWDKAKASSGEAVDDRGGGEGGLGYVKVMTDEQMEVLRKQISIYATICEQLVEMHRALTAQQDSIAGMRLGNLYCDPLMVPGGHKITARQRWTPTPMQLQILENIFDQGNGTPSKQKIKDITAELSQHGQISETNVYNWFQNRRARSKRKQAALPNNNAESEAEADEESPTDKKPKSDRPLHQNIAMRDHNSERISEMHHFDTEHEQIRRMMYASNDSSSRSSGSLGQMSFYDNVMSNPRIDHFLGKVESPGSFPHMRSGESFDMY
Briefly: protein-binding microarray (RPBM); PBS, 2% BSA, 51.3 ng/ul salmon testes DNA, 50 uM zinc acetate, 200 nM TF, 25 C, 1 h; high values mean tight binding. As to conditions: protein: recombinant; tags: N-terminal polyhistidine and DsRed monomer fusion (pET32a); label: CyDye5-dUTP incorporated in the synthesized complementary strand; 3' TTTTT single-stranded linker to array surface; dsDNA, one strand shown. Put shortly:
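Binding signal is defined as the fluorescence intensity of each feature in arbitrary units, read on an Axon 4000B scanner. Transcription factors with N-terminal polyhistidine and DsRed fusions came from E. coli BL21-CodonPlus and were purified on Ni–NTA. They were incubated at 200 nM for 1 h at 25 °C on a custom Agilent array that had been made double-stranded with Cy5-dUTP, with 50 µM zinc acetate present, and the array was washed.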
In the case of “CTCTAATTTCAGTTGCCTGATTTATATTCATGATTAACAACGGAGTCACCTAGTGCAG”, the binding signal is 18200 fluorescence intensity (a.u.).

For “TCCTAATTAATGTTAGAAATTTTCCTAATTAATGCTAGAACGGAGTCACCTAGTGCAG”, the binding signal is 28600 fluorescence intensity (a.u.).

In the case of “GCCACTAATTTATTCTTTAAAATGGTTTGGATCTTTAAATCGGAGTCACCTAGTGCAG”, the binding signal is 23000 fluorescence intensity (a.u.).

Regarding “TCTATAATTTATTTTATTATTAGTTTACGTTTAATATTTCCGGAGTCACCTAGTGCAG”, the binding signal was 8300 fluorescence intensity (a.u.).

On to “TATAGTAATTAAAACTCAATTAATCATATGTTAATACCACCGGAGTCACCTAGTGCAG”, for which the binding signal is 22800 fluorescence intensity (a.u.).

On to “CCACCAATCAGGGCGCACGTCCCCTCCTCTACAAAACCATCGGAGTCACCTAGTGCAG”, for which the binding signal is 13500 fluorescence intensity (a.u.).

As to “GAGCCCTGATTGGTTATCTGGCTTGAATTCCAAGTAGGTTCGGAGTCACCTAGTGCAG”, the binding signal was 39300 fluorescence intensity (a.u.).

As to “GGGTAATTGGGTCCGGCCCATTATCATGCCTCGTGGTCTCCGGAGTCACCTAGTGCAG”, the binding signal is 26300 fluorescence intensity (a.u.).

Regarding “TGTATAGACTGACGATGGTGACGATGCGCTTGGAGGCGGCCGGAGTCACCTAGTGCAG”, the binding signal was 3780 fluorescence intensity (a.u.).

Take “CTCTAGATTATCTGTGAGAGCGCTCTAACCAGTTTCACTCCGGAGTCACCTAGTGCAG”: the binding signal was 4240 fluorescence intensity (a.u.).

As to “AACGTCCGATTTAACATTAAATTAAGGCCATGATATTACTCGGAGTCACCTAGTGCAG”, the binding signal was 3620 fluorescence intensity (a.u.).

In the case of “TGATCTAATCAATGACAGCGACTTGGTTCCATGTTCTTCCCGGAGTCACCTAGTGCAG”, the binding signal was 12300 fluorescence intensity (a.u.).

Turning to “GCTATAAATTTGTAGCCCGTTTTCCTTCTCTCTTCTTCTTCGGAGTCACCTAGTGCAG”, the binding signal was 6210 fluorescence intensity (a.u.).

Regarding “GAAAATGCAATTACATGGAAAATTTATATATGGATTGCAGCGGAGTCACCTAGTGCAG”, the binding signal is 10100 fluorescence intensity (a.u.).

For “TAGATTCAATCAGAAATAAAGTCTATATGAACAGAGGGTACGGAGTCACCTAGTGCAG”, the binding signal is 3930 fluorescence intensity (a.u.).

As for “CCGTGGTTAACTACTTGATGGGTTCTCTCAAGTGTTAATGCGGAGTCACCTAGTGCAG”, the binding signal is 3390 fluorescence intensity (a.u.).

“GCTAATGAGTCAATTTCCATTGAAAGATTATTTCACCTTGCGGAGTCACCTAGTGCAG”: the binding signal was 15600 fluorescence intensity (a.u.).

For the sequence “GACTGTTAAATTAACTATAGATGATTTGAATCTAGTACTACGGAGTCACCTAGTGCAG”, the binding signal is 26500 fluorescence intensity (a.u.).

Take “CGGTTTGATTAATATTCCTTGCTCCAGTCCAAAGAGAACGCGGAGTCACCTAGTGCAG”: the binding signal was 25300 fluorescence intensity (a.u.).

Take “GCTTGATTGCCACACAAATTTTGACAATACGACCCTTTACCGGAGTCACCTAGTGCAG”: the binding signal is 42900 fluorescence intensity (a.u.).

For “AGTTATTATTTTATCTTTAATAGATTGATAAAAGGTGATACGGAGTCACCTAGTGCAG”, the binding signal is 13000 fluorescence intensity (a.u.).

For the sequence “TTGATTTATTTATTTTATAATAAATAAAACAATAGCCATGCGGAGTCACCTAGTGCAG”, the binding signal was 32900 fluorescence intensity (a.u.).

As for “GATAATTTGTCAAAGTTGTTCCCCAATGCACACCTGACCACGGAGTCACCTAGTGCAG”, the binding signal is 18900 fluorescence intensity (a.u.).

With “TTCCCATCAATCCGTCCACAATCAAACCACTTCCATCTCTCGGAGTCACCTAGTGCAG”, the binding signal was 6760 fluorescence intensity (a.u.).

For “CCTTTTGTGACTTTTGTCCATCAATCATACAGTCACGCTCCGGAGTCACCTAGTGCAG”, the binding signal is 6920 fluorescence intensity (a.u.).

As to “GTATTAATTTCCCTATCATGTTTACAACATGGCGCAGGTTCGGAGTCACCTAGTGCAG”, the binding signal was 23500 fluorescence intensity (a.u.).

On to “AAATAGTTAATTGATAAATCTAAAAGTGGCAACCCCAAATCGGAGTCACCTAGTGCAG”, for which the binding signal is 27900 fluorescence intensity (a.u.).

As to “TATTAATTTCCAAATAAATTGCTATGTCAATGCCACGTCACGGAGTCACCTAGTGCAG”, the binding signal was 33600 fluorescence intensity (a.u.).

Turning to “TAACATAATCCTCGAATTATTAATTAGTTAACTATAAGAGCGGAGTCACCTAGTGCAG”, the binding signal was 3510 fluorescence intensity (a.u.).

For “ACAAAATAATTATCATAATAGAGTACTAATTGTCTCATAACGGAGTCACCTAGTGCAG”, the binding signal is 24200 fluorescence intensity (a.u.).

For “TGTGGTTACAACATGATTGTGTCTCTATTTAAGAGAGAGTCGGAGTCACCTAGTGCAG”, the binding signal is 3280 fluorescence intensity (a.u.).

With “TTGAAGTAATTTATTATCAATATCACTTCCAAGGAAATAACGGAGTCACCTAGTGCAG”, the binding signal was 6100 fluorescence intensity (a.u.).

As for “ATGTGATTTGGCACGCCTTCAGCTGTAATATTTGGCGCTTCGGAGTCACCTAGTGCAG”, the binding signal was 4490 fluorescence intensity (a.u.).

As to “CAATAAATTAGCACATAATTAATTAAGTATTTATTTATTTCGGAGTCACCTAGTGCAG”, the binding signal is 34500 fluorescence intensity (a.u.).

Turning to “TGGGGCGCATGACTGTATCAATCAATGCCTACTAATATGACGGAGTCACCTAGTGCAG”, the binding signal was 15400 fluorescence intensity (a.u.).

In the case of “ATGAAATGTATGTTCAAATTCTTCGTTAGGATTGGATTATCGGAGTCACCTAGTGCAG”, the binding signal was 8580 fluorescence intensity (a.u.).

As for “ACCCTGATTAACGATTTCCATCAACATCACAACGCCACCACGGAGTCACCTAGTGCAG”, the binding signal is 41000 fluorescence intensity (a.u.).

In the case of “AATGATTGGAGCTAATGAACTTGGTTTGCCAAGTGCCCTCCGGAGTCACCTAGTGCAG”, the binding signal is 39900 fluorescence intensity (a.u.).

With “TTCCGGCCTAGATTGAATCTGGGTTTAACCGTAAGAGTCCCGGAGTCACCTAGTGCAG”, the binding signal is 6260 fluorescence intensity (a.u.).

“ATGCTAATTACACCACCTAATTTGTTGTATCTACATGCCACGGAGTCACCTAGTGCAG”: the binding signal is 35700 fluorescence intensity (a.u.).

As to “TTTAGAAATGATAATTTACAGCACATAAATTCAAGGAACGCGGAGTCACCTAGTGCAG”, the binding signal is 8490 fluorescence intensity (a.u.).

On to “ACGAAAATTATCATGCATAAATAGTATTGCGTTCTGTAGTCGGAGTCACCTAGTGCAG”, for which the binding signal was 10300 fluorescence intensity (a.u.).

Turning to “CCTGCACATAATTTACATTATTTTCAAAACCCTTGCCTATCGGAGTCACCTAGTGCAG”, the binding signal was 14300 fluorescence intensity (a.u.).

On to “GGGTGATTTGTTGTAATGACGCGTGTGGTGGGGTGTGTGGCGGAGTCACCTAGTGCAG”, for which the binding signal is 45700 fluorescence intensity (a.u.).

Consider “ATGTAACTAGTATATAATCATCACTCATCATTATGTATGTCGGAGTCACCTAGTGCAG”, for which the binding signal is 9480 fluorescence intensity (a.u.).

Consider “CCAACCAATCAGCTGTGTTTGTTGGTGTCCAGAGCATGTGCGGAGTCACCTAGTGCAG”, for which the binding signal is 10200 fluorescence intensity (a.u.).

As to “AATGACAACAGTAGTCCTAAATTGACCAACTATAATCGAGCGGAGTCACCTAGTGCAG”, the binding signal is 4820 fluorescence intensity (a.u.).

In the case of “TCTTGATTTATTTTAGGACGGGTGGGTAGTTTTCTGCGTTCGGAGTCACCTAGTGCAG”, the binding signal is 42900 fluorescence intensity (a.u.).

Turning to “GTTTTAATTTGATTTTCTACGTGTTGAAATTAACTGCTCACGGAGTCACCTAGTGCAG”, the binding signal was 40000 fluorescence intensity (a.u.).

Regarding “GTTAATAATTACCAAGACTCGTTCTATGTATCTGAGTGAACGGAGTCACCTAGTGCAG”, the binding signal was 10300 fluorescence intensity (a.u.).

As to “AATTGGCTTGGCTAATTAATTACTCCATTTGCGAACATGGCGGAGTCACCTAGTGCAG”, the binding signal is 4010 fluorescence intensity (a.u.).

As to “TGTTCTTGATTTTGATCCCTTATTACAAGTGACTTTGCCACGGAGTCACCTAGTGCAG”, the binding signal was 4420 fluorescence intensity (a.u.).

For “CTCCAAATTAGAGGATCTCAATCCAGTATATAAACATCCGCGGAGTCACCTAGTGCAG”, the binding signal was 4880 fluorescence intensity (a.u.).

For the sequence “ACTTTCAAAACTTAAATTTACCGCTGATAACACCAGAATTCGGAGTCACCTAGTGCAG”, the binding signal is 3810 fluorescence intensity (a.u.).
